In the antibiotic and cytotoxicity screens of Wong et al. (2023):
This is one part of the list.

tested on: S. aureus RN4220; test: growth inhibition call (relative growth <= 0.2); details: 50 µM

Growth inhibition call, inactive:
C[C@@H]1CN([C@@H](C)CO)C(=O)c2cccc(NC(=O)CCCCCC(=O)Nc3ccccc3N)c2O[C@@H]1CN(C)Cc1ccc(C(F)(F)F)cc1
C[C@H]1CN([C@@H](C)CO)C(=O)c2cc(C#CCN(C)C)cnc2O[C@@H]1CN(C)C(=O)CCN1CCCCC1
C[C@@H]1CN([C@@H](C)CO)C(=O)c2cc(N(C)C)ccc2O[C@@H](C)CCCCO[C@@H]1CN(C)C(=O)CCCN(C)C
Cc1noc(C)c1NC(=O)N(C)C[C@H]1Oc2ccc(NS(=O)(=O)c3ccccc3)cc2C(=O)N([C@H](C)CO)C[C@@H]1C
C[C@@H]1CN([C@@H](C)CO)C(=O)Cc2cc(NC(=O)Nc3cccc4ccccc34)ccc2O[C@@H]1CN(C)C(=O)NC1CCCCC1
C=CCC[C@@H](Cc1ccc(F)cc1)C(=O)O[C@@H](CNC(=O)[C@H](CC=C)CC(=O)N(CCO)Cc1ccccc1)c1ccccc1
COc1ccc(S(=O)(=O)Nc2ccc3c(c2)C(=O)N([C@H](C)CO)C[C@@H](C)[C@H](CN(C)CC2CCCCC2)OCCCC[C@@H](C)O3)cc1
O=C(C[C@@H]1C=C[C@H](NS(=O)(=O)c2ccc(F)cc2)[C@@H](CO)O1)NCc1ccc(Cl)c(Cl)c1
CCN1[C@@H]2c3ccc(-c4ccncc4)c(=O)n3C[C@H]1[C@H](CO)[C@H]2C(=O)NCCc1cn(C)cn1
C[C@@H]1CN([C@H](C)CO)C(=O)CCCn2nncc2CO[C@@H]1CN(C)C(=O)Nc1cccc2ccccc12
Cc1noc(C)c1NC(=O)N(C)C[C@H]1Oc2c(NC(=O)NC(C)C)cccc2C(=O)N([C@H](C)CO)C[C@H]1C
CC(C)(O)c1cn(-c2ccc(-c3cc(F)c(CO)c(S(C)(=O)=O)c3)cc2F)c(C(C)(C)c2c(Cl)cccc2Cl)n1
O=C(O)/C=C/C(=O)Nc1nccs1
CC1(C)N=C(N)N=C(N)N1c1ccccc1
COc1ccc(NC(=O)Nc2cccc3c2O[C@@H](CN(C)Cc2ccc(C(F)(F)F)cc2)[C@H](C)CN([C@H](C)CO)C3=O)cc1
C[C@@H]1CN([C@@H](C)CO)C(=O)c2cc(NC(=O)Nc3ccc(C(F)(F)F)cc3)ccc2O[C@@H]1CN(C)C(=O)Nc1ccc(F)cc1
CCNC(=O)[C@H]1[C@H](CO)[C@H]2Cn3c(ccc(C4=CCCC4)c3=O)[C@@H]1N2S(=O)(=O)c1cn(C)cn1
O=C1CSC(/N=C/c2ccccc2O)=NN1
COCC(=O)Nc1ccc2c(c1)C(=O)N(C)C[C@@H](OC)[C@@H](C)CN(C(=O)c1ccccc1F)[C@H](C)CO2
C[C@@H]1CN([C@@H](C)CO)C(=O)c2cc(NS(=O)(=O)c3cccs3)ccc2O[C@@H](C)CCCCO[C@@H]1CN(C)C(=O)c1ccccc1
COc1ccc(CN(C)C[C@H]2OCCCC[C@H](C)Oc3ccc(NS(=O)(=O)c4ccccc4)cc3C(=O)N([C@@H](C)CO)C[C@@H]2C)cc1
C[C@@H]1CN([C@@H](C)CO)C(=O)c2cccc(NC(=O)c3ccc(-c4nccs4)cc3)c2O[C@H]1CN(C)C(=O)NC1CCCCC1
COc1ccc(NC(=O)Nc2ccc3c(c2)C(=O)N([C@H](C)CO)C[C@H](C)[C@H](CN(C)S(=O)(=O)c2c(C)noc2C)OCCCC[C@@H](C)O3)cc1
C[C@@H]1CN([C@@H](C)CO)C(=O)c2cc(NS(=O)(=O)c3ccc(F)cc3)ccc2O[C@@H](C)CCCCO[C@@H]1CN(C)C(=O)Cc1ccccc1
C[C@@H]1CN([C@H](C)CO)C(=O)c2cc(NC(=O)CCCCCC(=O)Nc3ccccc3N)ccc2O[C@@H]1CN(C)C(=O)Nc1ccc(F)cc1
C[C@H]1CN([C@@H](C)CO)C(=O)c2cc(-c3ccc(C#N)cc3)cnc2O[C@@H]1CN(C)C(=O)Nc1ccc(C(F)(F)F)cc1
C[C@@H]1CN([C@H](C)CO)C(=O)c2cc(NC(=O)Nc3ccc4c(c3)OCO4)ccc2O[C@@H](C)CCCCO[C@@H]1CN(C)C(=O)c1ccccc1
COc1ccc(-c2oc3c(CC=C(C)C)c(OC4OC(CO)C(O)C(O)C4O)cc(O)c3c(=O)c2OC2OC(C)C(O)C(O)C2O)cc1 (stereo not given)
CN(C)CCCNC(=O)C[C@@H]1CC[C@H]2[C@@H](COc3ccc(NC(=O)NC4CCCC4)cc3C(=O)N2C)O1
C[C@H](CO)N1C[C@H](C)[C@@H](CN(C)C(=O)Nc2ccc(F)cc2)Oc2c(NC(=O)CCCCCC(=O)Nc3ccccc3N)cccc2C1=O
COC1=C(OC)C(=O)C(C/C=C(\C)CC/C=C(\C)CC/C=C(\C)CC/C=C(\C)CC/C=C(\C)CC/C=C(\C)CC/C=C(\C)CC/C=C(\C)CC/C=C(\C)CCC=C(C)C)=C(C)C1=O
C[C@@H]1CN([C@@H](C)CO)C(=O)Cc2cc(N(C)C)ccc2O[C@H]1CN(C)C(=O)Nc1ccc2c(c1)OCO2
Cn1nnnc1-c1ccc(N)cc1
COc1ccc(NC(=O)Nc2ccc3c(c2)C(=O)N([C@H](C)CO)C[C@H](C)[C@@H](CN(C)S(=O)(=O)c2ccc(Cl)cc2)OCCCC[C@@H](C)O3)cc1
Cc1ccc(S(=O)(=O)N(C)C[C@@H]2Oc3ccc(N(C)C)cc3CC(=O)N([C@H](C)CO)C[C@@H]2C)cc1
COc1ccc([Si](C)(C)[C@H]2[C@H](CCO)O[C@@]3(C(=O)N(Cc4ccccc4)c4ccc(N5C(=O)c6ccccc6Oc6ccccc65)cc43)[C@@H]2C)cc1
CO[C@@H]1CN(C)C(=O)c2cc(NC(=O)Nc3cccc(F)c3)ccc2OC[C@@H](C)N(C(=O)Nc2c(C)noc2C)C[C@H]1C
COc1ccc(S(=O)(=O)Nc2ccc3c(c2)CC(=O)N([C@@H](C)CO)C[C@@H](C)[C@H](CN(C)S(=O)(=O)c2ccc(F)cc2)O3)cc1
C[C@H]1CN([C@@H](C)CO)S(=O)(=O)c2ccc(C#CCN(C)C)cc2O[C@H]1CN(C)Cc1ccccn1
Cc1noc(C)c1NC(=O)N(C)C[C@H]1OCCCC[C@@H](C)Oc2ccc(NC(=O)Nc3ccc4c(c3)OCO4)cc2C(=O)N([C@H](C)CO)C[C@@H]1C
